The source of these data is paper PMC12136788.

T1: UNK ZnF1-3 (human, UniProt Q9C0B0 31-174)
T1 sequence: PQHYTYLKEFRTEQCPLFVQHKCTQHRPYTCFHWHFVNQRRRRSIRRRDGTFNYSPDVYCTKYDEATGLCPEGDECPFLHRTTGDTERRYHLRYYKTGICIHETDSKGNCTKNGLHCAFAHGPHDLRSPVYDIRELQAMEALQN

B1: chr2:61275951:61275952:+_ENSG00000162928_ENST00000295030|hu_mus|FALSE|FALSE (ssRNA)
RNA: GGGAGUUCUACAGUCCGACGAUCGCUUUCAUUCAACUGCAAAUUAAUUUCUCUGUAAGAAAUGAUUUUUUAAAAUACUCUAAAAUAUUGUUCACCUGCCCACAAACAUGAAACACAUCAAAGAUCUUGUUUGUCUCCAUUUUUCAACAGAGGAUUGAGCAUCA
B2: chr11:100882373:100882374:+_ENSMUSG00000019302_ENSMUST00000044721|mus_mus|mus_mus_mus_hu_True|1_108 (ssRNA)
RNA: GGGAGUUCUACAGUCCGACGAUCUUCCUGGUUAGUGUUGAUUUCCUUCAGUUCAUUUUCAAUCUUCUCAAAAUUGGCCUCUAAGUCAAUCAUGUCCCGGGGGAAGGGAACCUCUGGGUUUUCACCGGUGUCCAUAAUUGGGAUCAACAGAGGAUUGAGCAUCA
B3: 80927136_80929697_1061_3pUTR_ENSMUSG00000034818_ENSMUST00000118763|mouse|control|control (ssRNA)
RNA: GGGAGUUCUACAGUCCGACGAUCGGGCGCGAUGGCCGCGGUGGGAUACAUGGCUGUGUACUGCUGGACUCCGGAGAAGGCAGGAUGGAGGGUCUCUGCCACAGUGGGGCUCUGAGCUGGGUAGGGCACAAGGCCAUUGGCAUACAACAGAGGAUUGAGCAUCA
B4: chr3:184040909:184040910:+_ENSG00000114867_ENST00000411531|hu_hu|FALSE|FALSE (ssRNA)
RNA: GGGAGUUCUACAGUCCGACGAUCGCCAAGGUUGGCAAAGGAUGGAGUGAAGUCUGGGCCACAAUUUAUGCCUUGUAGUCUAGUGGGAUCCAGUGGCCGCAGUGGUGUUUUAUUGGCCUUGUCCAGCACCACGUCACUGAUAUGCAACAGAGGAUUGAGCAUCA
B5: 60917833_60919184_1730_CDS_ENSMUSG00000021987_ENSMUST00000022563|mouse|control|control (ssRNA)
RNA: GGGAGUUCUACAGUCCGACGAUCCAGGGCAGGUGAUUCAGGGUGGACAGCAUGCAGCAACUCCUUCGUUAGGAUGCCAUUUUUGCAUUGCUUAAUUUUAGCCUCGAGGUCUUUAAUGUCUUCCUCUAACUGCUUGCUUUGCUCCAACAGAGGAUUGAGCAUCA
B6: 76672510_76672630_5891_3pUTR_ENSG00000089916_ENST00000261530|human|control|control (ssRNA)
RNA: GGGAGUUCUACAGUCCGACGAUCUCUACCACUUGCAUUUAGUUCUGAGUGAUGGAACUCACCAUUUUCCUCACCCUUUCCCUCUGUACCAGUUUUCUUCUAAGGGGCGAAAUUGUUGCCAGUGACAGUAACUCUGUGACCUUUCAACAGAGGAUUGAGCAUCA
B7: chr4:123027775:123027776:-_ENSMUSG00000028649_ENSMUST00000154824|mus_hu|motif|central (ssRNA)
RNA: GGGAGUUCUACAGUCCGACGAUCUUAUCUUGCUGAGAUAGCAAGUCAAGUUUAUAAAGAAGAUGCAUUUAGGAAUAAUCCGGAAAGAUAAAGCAGGUUUACAACCCUGCACCGCGCAGAAACCCUAUUAAUAGGCUUUUUUUUCAACAGAGGAUUGAGCAUCA
B8: chr2:20138125:20138126:-_ENSG00000118965_ENST00000281405|hu_hu|FALSE|FALSE (ssRNA)
RNA: GGGAGUUCUACAGUCCGACGAUCUUUAAUUCCAACCUUCUCAAUCAGUGCUCGGCUAUCUCGCAGAGACCGAAUCUCAAAGUUAAUUAGGUAAUCCUUGUUUGGAUGUUCUGGAUCCUUUAAUAUCUCAUCCAAAAGAACAGACAACAGAGGAUUGAGCAUCA
B9: chr1:229631779:229631780:-_ENSG00000069248_ENST00000261396|hu_mus|FALSE|FALSE (ssRNA)
RNA: GGGAGUUCUACAGUCCGACGAUCCAGUUCCCAUUUGCUGAUGUUUGAACUCGUCAGGGUGUAGAAACUUGAUCCUCCUCUGUCCCACAGAACACUGGCCAGCAUGAGGUCACUAGUAGGGGACAGAAUCCCGAAAAGGGAAGACAACAGAGGAUUGAGCAUCA
B10: chr3:130449232:130449233:-_ENSG00000196455_ENST00000356763|hu_hu|FALSE|FALSE (ssRNA)
RNA: GGGAGUUCUACAGUCCGACGAUCCUCAUCUAUUUCUUCAUUAUUGGGGUCAUUUUCCAUAUUAAGAUUUUUUAACUGUACUAAUUCCAGGAAUCUCAGAGCUGUUUCUGCCAGCAGAGCUAUGUUUUCAGCAUAGGCUAGUCUCAACAGAGGAUUGAGCAUCA
B11: chr1:51737530:51737531:+_ENSG00000123091_ENST00000242719|perfect_dup|FALSE|FALSE (ssRNA)
RNA: GGGAGUUCUACAGUCCGACGAUCACUGGUUUUCAAGCAUAGAGCCAGCCCCAACGAUAAUAAUACACUAUUUAAAAAGACCUAAGGCAAUGAAUUCCAUUUCCAAUGGAAAAAAAGAACUGUGCAAACAAGCUUAAAACUACUCAACAGAGGAUUGAGCAUCA
B12: chr17:15081082:15081083:+_ENSMUSG00000050088_ENSMUST00000052691|mus_hu|FALSE|FALSE (ssRNA)
RNA: GGGAGUUCUACAGUCCGACGAUCUCCCAGAGUGUGGUCAACGACUCAAAAGAGAAUUUCAAGUACCAGUUUCAAAAUGCUAAUUAAUAUCGUCCAGAGAACAGAUUCCUCCUCUUGCGAGGCGUCUUCCGGGGCACCAGCGUGCAACAGAGGAUUGAGCAUCA
B13: chr22:19452774:19452775:-_ENSG00000070010_ENST00000399523|hu_hu|hu_hu_hu_mus_False|18_78 (ssRNA)
RNA: GGGAGUUCUACAGUCCGACGAUCCUUCUCAUUGUAGUUGAUAGCAAUCACAUCUCCGGUGGUCAGACAGGCGAAGUUUCUCAAUGCAUUUUCUAAUACCGCUUUAGGGUUGGUAAUGUCCAGGAAGUCUGGGCUCUGAGGCUGCAACAGAGGAUUGAGCAUCA
B14: chr10:33190432:33190433:-_ENSG00000150093_ENST00000302278|hu_mus|motif|central (ssRNA)
RNA: GGGAGUUCUACAGUCCGACGAUCUACAUUUUCCAAACCUGCAUGUGAAUAAAACCCUGGCCACAGAGCCCCAAAACGGCCCGGCUGUGACUAAGAUGCUGCUGCUGUGAGCUUGGUGUUGCAAAAUCCGCCUGAGUAGGAUUCCAACAGAGGAUUGAGCAUCA
B15: chr4:140556289:140556290:+_ENSMUSG00000036622_ENSMUST00000037055|mus_mus|mus_mus_mus_hu_False|18_58 (ssRNA)
RNA: GGGAGUUCUACAGUCCGACGAUCGAUGGAGCUCACCAGGCCCCCUUUUGCCGUGCAGAACCCUGUGCGGGUCACCACUGCUAGCACGUGCGGUCCCACAUAGGCCCGGGCCUGCAAAAUGAGGGUGCCGCAGAAGAGUGUGUGCAACAGAGGAUUGAGCAUCA
B16: chr6:114281168:114281169:-_ENSG00000196591_ENST00000368632|hu_mus|FALSE|FALSE (ssRNA)
RNA: GGGAGUUCUACAGUCCGACGAUCUUCCAUUUUUCGGUAUAAACCAUAAUUUAGCAGCAAGUUAUGAGUCAUCCGGAUUCUAUGAGGCUUCAUGGGAUGACCCUGGCCAUAAUAAUAAUUGCCAAUAUCACCAUCAUAGUAGUACAACAGAGGAUUGAGCAUCA
B17: chr1:23395093:23395094:+_ENSG00000004487_ENST00000356634|perfect_dup|FALSE|FALSE (ssRNA)
RNA: GGGAGUUCUACAGUCCGACGAUCUGCCUGGCCAAGGGAUACAGGUUUAUUAUUGAGGACGUUGAAGUCUAACUGGUGACUAAGGUAAGAAGUGGCUUCUAGCAACCGGUUAAAUUCUUGUUCUACCAUUUCAUCUUUUUCUUUCAACAGAGGAUUGAGCAUCA
B18: chr11:4127340:4127341:+_ENSG00000167325_ENST00000300738|hu_mus|hu_hu_hu_mus_False|68_88 (ssRNA)
RNA: GGGAGUUCUACAGUCCGACGAUCGGCAUAGUCAGGGUGCUUCGUGGUCAAGGUUGCGGCUGUCUCAGCAGCCAAAGUGUCCAGUUCCACUGUGGUGACCCCACUAUAUAGGCCUUGGAUUACUUUCAUGGUGAUCUGAGCAGGCAACAGAGGAUUGAGCAUCA
B19: chr10:88199856:88199857:+_ENSMUSG00000060904_ENSMUST00000116234|mus_mus|motif|central (ssRNA)
RNA: GGGAGUUCUACAGUCCGACGAUCUGCAUCUGUGUUUGAAUAAUAACAUCUCCAGUAUGGCCUGAUACUUGUCUGUCCUCCGGAGUCCCAAACUUGGAAUUUGAGAUUUUUGUAUGUCACCGUCUCCACAUUAAAUCCAAUAGUCAACAGAGGAUUGAGCAUCA
B20: 63821821_63821941_3485_3pUTR_ENSMUSG00000027823_ENSMUST00000029405|mouse|control|control (ssRNA)
RNA: GGGAGUUCUACAGUCCGACGAUCUUCUCACUGGGACAAUGAACACUUCAGCUUUUGUAGAAGACAAAUAGUGUUUCCAGUGUGGAUGUCUGCUGUUAGAGAUCUUUUCCUCUUGGUUCAGCAGCAGUUUCUGGCUAUCUAUAGCAACAGAGGAUUGAGCAUCA
B21: 95862298_95863879_1011_CDS_ENSG00000164941_ENST00000520526|human|control|control (ssRNA)
RNA: GGGAGUUCUACAGUCCGACGAUCUCAUACCAUGUAAUUCAAUUAAAAUUUGUCUAAUCCUCCAAGGAUCCACUGACAAUAUAAGUUGAUGCUCUAACUGACCAAUGUUGACACUUGCUGAAGCUGGGAUAUCAUAAAAUGAAGCAACAGAGGAUUGAGCAUCA
B22: chr17:32491106:32491107:-_ENSMUSG00000024050_ENSMUST00000163107|mus_mus|FALSE|FALSE (ssRNA)
RNA: GGGAGUUCUACAGUCCGACGAUCCAUUGAUAACCAAAAGGUGGCCACUGAAAAGGUUAAAAGGUCAAUUAGCUCCCGGUAUCUAGCUGGCCCAGGAUUGCAAAAUAAAAAGAUCCACGUUCCUUAUUCUCUACACAAAACGCACAACAGAGGAUUGAGCAUCA

Some of the results follow.

The test has as its target T1, UNK ZnF1-3. Briefly: nsRBNS (natural sequence RNA bind-n-seq); RBNS binding buffer (assumed for nsRBNS): 25 mM Tris pH 7.5, 150 mM KCl, 3 mM MgCl2, 0.01% Triton X-100, 500 ug/ml BSA, 20 U/ml SUPERase-In, 4 C; UNK is unkempt and MSI1 is Musashi-1; names of the RNAs are library labels; protein concentration not given here; high values mean tight binding.
Turning to B1, the binding signal amounted to 1.46 enrichment R. Consider B2, for which the binding signal was 0.771 enrichment R. The molecule B3 registered a binding signal of 1.21 enrichment R. With B4 the figure was 0.788 enrichment R; with B5, 0.839 enrichment R; with B6, 0.607 enrichment R. In turn, B7 displayed a binding signal of 0.647 enrichment R. Take B8: the binding signal was determined as 0.73 enrichment R. As for B9, the binding signal came to 0.735 enrichment R. The molecule B10 returned a binding signal of 1.06 enrichment R. With B11 the figure was 1.34 enrichment R. With B12 the figure was 1.21 enrichment R; with B13, 0.914 enrichment R. B14 gave a binding signal of 1.16 enrichment R. In turn, B15 had a binding signal of 1.42 enrichment R.

As to B16, the binding signal came out at 0.884 enrichment R.

B17 showed a binding signal of 0.691 enrichment R.

B18: the binding signal was 1.04 enrichment R.

The molecule B19 registered a binding signal of 0.943 enrichment R. For B20, the binding signal was determined as 0.753 enrichment R. For B21, the binding signal stood at 1.33 enrichment R. With B22 the figure was 1.27 enrichment R.
